{"source": "the supplement of paper PMC8728848", "assay_in_all_cases": "glycan array binding signal (z-score within array); higher = stronger binding", "conditions_in_all_cases": "glycan notation: IUPAC condensed, linker removed", "key": {"[1]": {"molecular_target": "Fuc(a1-2)[GalNAc(a1-3)]Gal(b1-4)GlcNAc(b1-2)Man", "procedure,_shortened": "(§1)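 The binding signal is a Z-score computed within each array and averaged over linkers. Arrays of the same protein sequence at different concentrations or buffers were also averaged together. Data originate from 3228 arrays in the Consortium for Functional Glycomics database, kept only where the protein sequence was available.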"}, "[2]": {"molecular_target": "Fuc(a1-2)[GalNAc(a1-3)]Gal(b1-4)GlcNAc(b1-2)Man(a1-3)[Fuc(a1-2)[GalNAc(a1-3)]Gal(b1-4)GlcNAc(b1-2)Man(a1-6)]Man(b1-4)GlcNAc(b1-4)GlcNAc", "procedure,_shortened": "as §1"}, "[3]": {"molecular_target": "Fuc(a1-2)[GalNAc(a1-3)]Gal(b1-4)GlcNAc(b1-2)Man(a1-3)[Fuc(a1-2)[GalNAc(a1-3)]Gal(b1-4)GlcNAc(b1-2)Man(a1-6)]Man(b1-4)GlcNAc(b1-4)[Fuc(a1-6)]GlcNAc", "procedure,_shortened": "as §1"}, "[4]": {"molecular_target": "Fuc(a1-2)[GalNAc(a1-3)]Gal(b1-4)GlcNAc(b1-3)Gal(b1-4)GlcNAc", "procedure,_shortened": "as §1"}, "[5]": {"molecular_target": "Fuc(a1-2)[GalNAc(a1-3)]Gal(b1-4)GlcNAc(b1-3)Gal(b1-4)GlcNAc(b1-3)Gal(b1-4)GlcNAc", "procedure,_shortened": "as §1"}, "[6]": {"molecular_target": "Fuc(a1-2)[GalNAc(a1-3)]Gal(b1-4)GlcNAc(b1-3)GalNAc", "procedure,_shortened": "as §1"}, "[7]": {"molecular_target": "Fuc(a1-2)[GalNAc(a1-3)]Gal(b1-4)GlcNAc(b1-3)[Fuc(a1-2)[GalNAc(a1-3)]Gal(b1-4)GlcNAc(b1-6)]GalNAc", "procedure,_shortened": "as §1"}, "[8]": {"molecular_target": "Fuc(a1-2)[GalNAc(a1-3)]Gal(b1-4)GlcNAc(b1-6)GalNAc", "procedure,_shortened": "as §1"}, "[9]": {"molecular_target": "Fuc(a1-2)[GalNAc(a1-3)]Gal(b1-4)[Fuc(a1-3)]GlcNAc", "procedure,_shortened": "as §1"}, "[10]": {"molecular_target": "Fuc(a1-2)[GalNAc(a1-3)]Gal(b1-4)[Fuc(a1-3)]GlcNAc(b1-3)GalNAc", "procedure,_shortened": "as §1"}, "[11]": {"molecular_target": "Fuc(a1-2)[GalNAc(a1-4)]Gal(b1-4)GlcNAc", "procedure,_shortened": "as §1"}, "[12]": {"molecular_target": "Fuc(a1-2)[GalNAc(b1-3)]Gal", "procedure,_shortened": "as §1"}, "Fuc(a1-3)GlcNAc": {"molecular_target": "Fuc(a1-3)GlcNAc", "procedure,_shortened": "as §1"}, "[13]": {"molecular_target": "Fuc(a1-3)[Gal(b1-4)]Glc6S", "procedure,_shortened": "as §1"}, "[14]": {"molecular_target": "Fuc(a1-3)[Gal(b1-4)]GlcNAc", "procedure,_shortened": "as §1"}, "[15]": {"molecular_target": "Fuc(a1-3)[Gal(b1-4)]GlcNAc(b1-2)Man", "procedure,_shortened": "as §1"}, "[16]": {"molecular_target": "Fuc(a1-3)[Gal(b1-4)]GlcNAc(b1-2)Man(a1-3)[Fuc(a1-3)[Gal(b1-4)]GlcNAc(b1-2)Man(a1-6)]Man(b1-4)GlcNAc(b1-4)GlcNAc", "procedure,_shortened": "as §1"}, "[17]": {"molecular_target": "Fuc(a1-3)[Gal(b1-4)]GlcNAc(b1-2)Man(a1-3)[Fuc(a1-3)[Gal(b1-4)]GlcNAc(b1-2)Man(a1-6)]Man(b1-4)GlcNAc(b1-4)[Fuc(a1-6)]GlcNAc", "procedure,_shortened": "as §1"}, "[18]": {"molecular_target": "Fuc(a1-3)[Gal(b1-4)]GlcNAc(b1-3)Gal(b1-3)[Fuc(a1-4)]GlcNAc", "procedure,_shortened": "as §1"}, "[19]": {"molecular_target": "Fuc(a1-3)[Gal(b1-4)]GlcNAc(b1-3)Gal(b1-4)[Fuc(a1-3)]GlcNAc", "procedure,_shortened": "as §1"}, "[20]": {"molecular_target": "Fuc(a1-3)[Gal(b1-4)]GlcNAc(b1-3)Gal(b1-4)[Fuc(a1-3)]GlcNAc(b1-3)Gal(b1-4)[Fuc(a1-3)]GlcNAc", "procedure,_shortened": "as §1"}, "[21]": {"molecular_target": "Fuc(a1-3)[Gal(b1-4)]GlcNAc(b1-3)GalNAc", "procedure,_shortened": "as §1"}, "[22]": {"molecular_target": "Fuc(a1-3)[Gal(b1-4)]GlcNAc(b1-4)Gal(b1-4)[Fuc(a1-3)]GlcNAc", "procedure,_shortened": "as §1"}, "[23]": {"molecular_target": "Fuc(a1-3)[Gal(b1-4)]GlcNAc(b1-4)Gal(b1-4)[Fuc(a1-3)]GlcNAc(b1-4)Gal(b1-4)[Fuc(a1-3)]GlcNAc", "procedure,_shortened": "as §1"}, "[24]": {"molecular_target": "Fuc(a1-3)[Gal(b1-4)]GlcNAc(b1-6)GalNAc", "procedure,_shortened": "as §1"}, "[25]": {"molecular_target": "Fuc(a1-3)[Gal(b1-4)]GlcNAc(b1-6)[Gal(b1-3)GlcNAc(b1-3)]Gal(b1-4)Glc", "procedure,_shortened": "as §1"}, "[26]": {"molecular_target": "Fuc(a1-3)[Gal(b1-4)]GlcNAc(b1-6)[Neu5Ac(a2-3)Gal(b1-3)]GalNAc", "procedure,_shortened": "as §1"}, "[27]": {"molecular_target": "Fuc(a1-3)[Gal(b1-4)]GlcNAc6S", "procedure,_shortened": "as §1"}, "[28]": {"molecular_target": "Fuc(a1-3)[Gal3S(b1-4)]Glc", "procedure,_shortened": "as §1"}, "[29]": {"molecular_target": "Fuc(a1-3)[Gal3S(b1-4)]Glc6S", "procedure,_shortened": "as §1"}, "[30]": {"molecular_target": "Fuc(a1-3)[Gal3S(b1-4)]GlcNAc", "procedure,_shortened": "as §1"}, "[31]": {"molecular_target": "Fuc(a1-3)[Gal3S(b1-4)]GlcNAc6S", "procedure,_shortened": "as §1"}, "[32]": {"molecular_target": "Fuc(a1-3)[GalNAc(b1-4)]Gal(b1-4)GlcNAc", "procedure,_shortened": "as §1"}, "[33]": {"molecular_target": "Fuc(a1-3)[GalNAc(b1-4)]GlcNAc", "procedure,_shortened": "as §1"}, "[34]": {"molecular_target": "Fuc(a1-3)[GalNAc(b1-4)]GlcNAc6S", "procedure,_shortened": "as §1"}, "[35]": {"molecular_target": "Fuc(a1-3)[GalNAc3S(b1-4)]GlcNAc", "procedure,_shortened": "as §1"}, "Fuc(a1-4)GlcNAc": {"molecular_target": "Fuc(a1-4)GlcNAc", "procedure,_shortened": "as §1"}, "Fuc(b1-3)GlcNAc": {"molecular_target": "Fuc(b1-3)GlcNAc", "procedure,_shortened": "as §1"}, "Gal(a1-2)Gal": {"molecular_target": "Gal(a1-2)Gal", "procedure,_shortened": "as §1"}, "Gal(a1-3)Gal": {"molecular_target": "Gal(a1-3)Gal", "procedure,_shortened": "as §1"}, "Gal(a1-3)Gal(b1-3)Glc": {"molecular_target": "Gal(a1-3)Gal(b1-3)Glc", "procedure,_shortened": "as §1"}, "Gal(a1-3)Gal(b1-3)GlcNAc": {"molecular_target": "Gal(a1-3)Gal(b1-3)GlcNAc", "procedure,_shortened": "as §1"}, "[36]": {"molecular_target": "Gal(a1-3)Gal(b1-3)GlcNAc(b1-2)Man", "procedure,_shortened": "as §1"}, "[37]": {"molecular_target": "Gal(a1-3)Gal(b1-3)GlcNAc(b1-2)Man(a1-3)[Gal(a1-3)Gal(b1-3)GlcNAc(b1-2)Man(a1-6)]Man(b1-4)GlcNAc(b1-4)GlcNAc", "procedure,_shortened": "as §1"}, "[38]": {"molecular_target": "Gal(a1-3)Gal(b1-3)GlcNAc(b1-3)GalNAc", "procedure,_shortened": "as §1"}}, "note": "The other results are listed elsewhere or left out."}
{"binder": "Gal 7 (Homo sapiens) (protein) MSNVPHKSSLPEGIRPGTVLRIRGLVPPNASRFHVNLLCGEEGGSDAALHFNPRLDTSEVVFNSKEGGSWGREERGPGVPFGRGQPFEVLIIASDDGFKAVVGDAQYHHFRHRLPLARVRLVEVGGDVQLDSVRIF", "values": [{"measurement": "glycan array binding signal (z-score)", "setting": "[1]", "value": -0.264}, {"measurement": "glycan array binding signal (z-score)", "setting": "[2]", "value": -0.273}, {"measurement": "glycan array binding signal (z-score)", "setting": "[3]", "value": 0.188}, {"measurement": "glycan array binding signal (z-score)", "setting": "[4]", "value": -0.304}, {"measurement": "glycan array binding signal (z-score)", "setting": "[5]", "value": 0.975}, {"measurement": "glycan array binding signal (z-score)", "setting": "[6]", "value": -0.108}, {"measurement": "glycan array binding signal (z-score)", "setting": "[7]", "value": -0.309}, {"measurement": "glycan array binding signal (z-score)", "setting": "[8]", "value": -0.265}, {"measurement": "glycan array binding signal (z-score)", "setting": "[9]", "value": -0.196}, {"measurement": "glycan array binding signal (z-score)", "setting": "[10]", "value": 0.459}, {"measurement": "glycan array binding signal (z-score)", "setting": "[11]", "value": -0.23}, {"measurement": "glycan array binding signal (z-score)", "setting": "[12]", "value": -0.241}, {"measurement": "glycan array binding signal (z-score)", "setting": "Fuc(a1-3)GlcNAc", "value": -0.304}, {"measurement": "glycan array binding signal (z-score)", "setting": "[13]", "value": -0.162}, {"measurement": "glycan array binding signal (z-score)", "setting": "[14]", "value": -0.32}, {"measurement": "glycan array binding signal (z-score)", "setting": "[15]", "value": -0.175}, {"measurement": "glycan array binding signal (z-score)", "setting": "[16]", "value": -0.116}, {"measurement": "glycan array binding signal (z-score)", "setting": "[17]", "value": 0.221}, {"measurement": "glycan array binding signal (z-score)", "setting": "[18]", "value": -0.256}, {"measurement": "glycan array binding signal (z-score)", "setting": "[19]", "value": -0.252}, {"measurement": "glycan array binding signal (z-score)", "setting": "[20]", "value": -0.266}, {"measurement": "glycan array binding signal (z-score)", "setting": "[21]", "value": 0.304}, {"measurement": "glycan array binding signal (z-score)", "setting": "[22]", "value": -0.214}, {"measurement": "glycan array binding signal (z-score)", "setting": "[23]", "value": -0.332}, {"measurement": "glycan array binding signal (z-score)", "setting": "[24]", "value": 0.994}, {"measurement": "glycan array binding signal (z-score)", "setting": "[25]", "value": -0.117}, {"measurement": "glycan array binding signal (z-score)", "setting": "[26]", "value": 0.659}, {"measurement": "glycan array binding signal (z-score)", "setting": "[27]", "value": -0.157}, {"measurement": "glycan array binding signal (z-score)", "setting": "[28]", "value": -0.272}, {"measurement": "glycan array binding signal (z-score)", "setting": "[29]", "value": -0.263}, {"measurement": "glycan array binding signal (z-score)", "setting": "[30]", "value": -0.295}, {"measurement": "glycan array binding signal (z-score)", "setting": "[31]", "value": -0.093}, {"measurement": "glycan array binding signal (z-score)", "setting": "[32]", "value": -0.292}, {"measurement": "glycan array binding signal (z-score)", "setting": "[33]", "value": -0.051}, {"measurement": "glycan array binding signal (z-score)", "setting": "[34]", "value": -0.146}, {"measurement": "glycan array binding signal (z-score)", "setting": "[35]", "value": 0.008}, {"measurement": "glycan array binding signal (z-score)", "setting": "Fuc(a1-4)GlcNAc", "value": -0.324}, {"measurement": "glycan array binding signal (z-score)", "setting": "Fuc(b1-3)GlcNAc", "value": -0.303}, {"measurement": "glycan array binding signal (z-score)", "setting": "Gal(a1-2)Gal", "value": -0.321}, {"measurement": "glycan array binding signal (z-score)", "setting": "Gal(a1-3)Gal", "value": -0.307}, {"measurement": "glycan array binding signal (z-score)", "setting": "Gal(a1-3)Gal(b1-3)Glc", "value": 1.04}, {"measurement": "glycan array binding signal (z-score)", "setting": "Gal(a1-3)Gal(b1-3)GlcNAc", "value": 0.672}, {"measurement": "glycan array binding signal (z-score)", "setting": "[36]", "value": -0.242}, {"measurement": "glycan array binding signal (z-score)", "setting": "[37]", "value": 0.227}, {"measurement": "glycan array binding signal (z-score)", "setting": "[38]", "value": 0.002}]}
